Measured values reported in a compilation of properties of binary mixtures (doi:10.1016/j.fluid.2019.06.006).
Some of these densities may be calculated back from excess volumes.

Test: xn = mol fraction of the nth substance listed
Settings: 100 kPa

Compound `OC[C@@H](O)[C@@H](O)[C@H](O)[C@@H](O)CO` + CC(=O)[O-].CC[n+]1ccn(C)c1 has a mass density (303.15 K, x1 = 0.0941) of 1129 kg/m3, a mass density (303.15 K, x1 = 0.2859) of 1184 kg/m3 and a mass density (303.15 K, x1 = 0.483) of 1234 kg/m3. It also gave a mass density (313.15 K, x1 = 0.0941) of 1123 kg/m3, a mass density (313.15 K, x1 = 0.1894) of 1148 kg/m3 and a mass density (313.15 K, x1 = 0.2859) of 1178 kg/m3. For the same compound, the mass density (313.15 K, x1 = 0.483) was 1228 kg/m3, the mass density (313.15 K, x1 = 0.5836) was 1240 kg/m3 and the mass density (323.15 K, x1 = 0.0941) was 1117 kg/m3. For the same compound, the mass density (323.15 K, x1 = 0.1894) was 1142 kg/m3, the mass density (323.15 K, x1 = 0.2859) was 1171 kg/m3 and the mass density (323.15 K, x1 = 0.483) was 1221 kg/m3. It also gave a mass density (323.15 K, x1 = 0.5836) of 1232 kg/m3, a mass density (333.15 K, x1 = 0.0941) of 1111 kg/m3 and a mass density (333.15 K, x1 = 0.1894) of 1136 kg/m3. For the same compound, the mass density (333.15 K, x1 = 0.2859) was 1165 kg/m3, the mass density (333.15 K, x1 = 0.483) was 1214 kg/m3 and the mass density (333.15 K, x1 = 0.5836) was 1224 kg/m3.
In the case of `CC(=O)[O-].CC[n+]1ccn(C)c1` + OC[C@H](O)[C@@H](O)[C@H](O)[C@H](O)CO, the mass density (303.15 K, x2 = 0) is reported as 1095 kg/m3, the mass density (323.15 K, x2 = 0) is reported as 1083 kg/m3 and the mass density (333.15 K, x2 = 0) is reported as 1077 kg/m3.
